For 83 compounds, TGI and GI50 results are on record in PubChem BioAssay (NCI).

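Test compounds were applied to cells in 96-well plates for 48 hours at 5 doses. At the GI50, growth is halved. At the TGI there is no net growth.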 Numbered stars: 1 amine (or outer) side, 2 acyl side, 3 side chain; on linkers, the order of the positions; unused ones are H or OH. Bridge positions count the residues as written; N and C are the ends. Square brackets hold non-standard residues; d marks the D form. Peptide text beside a SMILES is read from it. I, II: the chains in the order shown. Actinocin(9to1) = Cc1c2oc3c(C)ccc(C(=O)[*:1])c3nc-2c(C(=O)[*:2])c(N)c1=O; NMeV = CN[CH](C(=O)O)C(C)C; Sar = CNCC(=O)O Some results are limits rather than exact numbers.

This assay relates to NCI-H322M lung. The experiment in a line: growth of human tumour cells (NCI), 48 h.
Take `COc1ccc(OC)c(-c2cn3c(n2)sc2ccccc23)c1`: the TGI is over 100 µM.
Still for that read-out and setting: then `c1ccc2c(c1)ccc1nc(-c3ccc4c(c3)OCO4)c3c(c12)CCC3`, with over 100 µM.
With `C[C@]12CCC3[C@@H](C[C@@H]4SC(Nc5ccccc5)=N[C@@]45CC(=O)CC[C@]35C)[C@@H]1CCC2=O` (some centres not stated), the GI50 is 50.5 µM and the TGI is over 100 µM.
In turn, `CCOC(=O)c1nc2ccccc2nc1Nc1ccc(F)cc1` came in with a TGI of over 100 µM.
On to `O=C1c2cccc3cc([N+](=O)[O-])cc(c23)C(=O)N1CCNCCNCCNCCN1C(=O)c2cccc3cc([N+](=O)[O-])cc(c23)C1=O`, for which the TGI was found to be 0.711 µM.
As for `CCCC[C@H]1C(=O)O[C@H](C)[C@H](NC(=O)c2cccc(NC=O)c2O)C(=O)O[C@@H](C)[C@@H]1OC(=O)CC(C)C`, the TGI stood at 38.2 µM.
The same measure, in the same setting: the figure for `Clc1ccc(-n2nnc(C3=NCCN3)c2-c2ccccc2)cc1` is over 100 µM; for `Cc1cccc(=O)c([O-])c1.Cc1cccc(=O)c([O-])c1.Cc1cccc(=O)c([O-])c1.Cc1cccc(=O)c([O-])c1.[Th+4]` it is over 100 µM; for `COCCN(C(=O)c1ccccc1)C1CCC(=O)c2[nH]c3ccccc3c21` (configuration not stated) it is 21.8 µM.
Same read-out and setting: then `CCOc1ccc(N=Cc2cccc3cccnc23)cc1`, with over 100 µM.
On the same count and under the same terms, then `O=C(O)C(=Cc1ccnc2ccccc12)C(=O)O`, with over 100 µM; and `CCCC(CC)c1cc(O)c(O)cc1C(CC)CCC` (configuration not stated), with over 10 µM.
In turn, `C/C(=C\COP(=O)(O)OP(=O)(O)O)CC/C=C(\C)CNc1ccccc1` had a TGI of 43 µM.
As for `Cc1ccc2c(c1)nc(C(=O)c1ccco1)c(C(F)(F)F)[n+]2[O-]`, the GI50 was over 100 µM and the TGI was over 100 µM.
On to `CCN(Cc1cccc(OC)c1)c1ccc(CO)c(Cl)c1`, for which the GI50 is 11.1 µM and the TGI came to 42.4 µM.
For the compound `CC(=O)CCCCCCCCCCCC[C@@H]1CC[C@H](C)[C@H](O)N1`, the TGI was over 100 µM.
As to `COc1ccc(/C=C/C(=O)c2cc3c(N)c(C(=O)Nc4ccccc4Cl)sc3nc2C)cc1`, the GI50 was 4.64 µM and the TGI is over 50 µM.
As for `O=Cc1c(-c2cc(O)ccc2O)nc2sccn12`, the GI50 is 22.9 µM and the TGI stood at 65 µM.
For `CCOC(=O)CC(=O)Sc1ccccc1`, the TGI was over 100 µM.
With `CN1CCCC(OC(=O)c2cc3cc(CCl)ccc3oc2=O)C1` (configuration not stated), the TGI was determined as 39.1 µM.
Same read-out and setting: the figure for `Nc1cc2ncnc(Nc3cccc(Br)c3)c2cn1` is over 100 µM; for `C=C1[C@@H](C)[C@H]2[C@H](Cc3ccccc3)NC(=O)[C@]23OC(=O)/C=C/[C@H](O)CCC[C@@H](C)C/C=C/[C@H]3[C@@H]1O` it is over 97.5 µM; for `CCCOC1OC(CS(=O)(=O)O)C(OC(C)=O)C(OC(C)=O)C1OC(C)=O` (configuration not stated) it is over 100 µM.
The same measure, in the same setting: the figure for `CC(C)Oc1cc2c(cc1O)CC[C@@H]1[C@@H]2CC[C@]2(C)[C@@H](O)CC[C@@H]12` is 59.5 µM.
Still for that read-out and setting: then `C/C(=N\NC(=O)c1ccncc1)c1cccc(C(F)(F)F)c1`, with over 10 µM; and `N#CC(NNC(=O)c1ccccc1O)c1ccc(O)cc1` (configuration not stated), with over 100 µM.
Regarding `CC(C)(C)N1CCC1C(N)=O` (configuration not stated), the GI50 was over 100 µM and the TGI is over 100 µM.
For the compound `CC(=O)O[C@H]1C(=O)[C@@]2(C)C(C(OC(=O)c3ccccc3)[C@]3(O)CC(OC(=O)[C@H](OC(=O)CCC(=O)O)C(NC(=O)c4ccccc4)c4ccccc4)C(C)=C1C3(C)C)C1(OC(C)=O)COC1C[C@@H]2OC(=O)CCC(=O)O` (some centres not stated), the TGI was over 100 µM.
Still for that read-out and setting: the figure for `O=C1c2ccccc2C2(c3ccc(Cl)cc3)N[C@@H]3CCCC[C@@H]3N12` (some centres not stated) is over 100 µM; for `CC(=O)Nc1ccc(C(=O)N2N=C(C)/C(=C/c3ccccc3O)C2=O)cc1` it is over 100 µM; for `O=c1c2ccccc2c2ccccc2c(=O)n1-c1cc2c3ccccc3ccc2c2ccccc12` it is over 100 µM.
The same measure, in the same setting: the figure for `Cc1ccc(NC(=O)CC2C(=O)Nc3ccccc3S2=O)cc1C` (configuration not stated) is over 100 µM.
For `O=C(O)c1ccc2c(c1)Cc1cc([N+](=O)[O-])ccc1-2`, the TGI was over 100 µM.
Still for that read-out and setting: the figure for `O=[N+]([O-])c1cccc([N+](=O)[O-])c1Cl` is 37.9 µM; for `Cc1c(/C=N/NS(=O)(=O)c2ccccc2)no[n+]1[O-]` it is over 100 µM.
Regarding `COC(=O)c1c(C)cccc1C1CN=NC12Cc1cccc(C)c1C2=O` (configuration not stated), the TGI is over 100 µM.
On to `O=C(/C=C/c1cccnc1)NCCCCC1CCN(C(=O)c2ccccc2)CC1`, for which the GI50 is over 100 µM and the TGI is over 100 µM.
Take `CCn1c(SCc2nnc(Nc3ccccc3)s2)nc2ccccc2c1=O`: the TGI was determined as 8.41 µM.
In turn, `Cc1c2oc3c(C)ccc(C(=O)NC4C(=O)NC(Cc5ccc(O)cc5)C(=O)N5CCCC5C(=O)N(C)CC(=O)N(C)C(C(C)C)C(=O)OC4C)c3nc-2c(C(=O)NC2C(=O)NC(Cc3ccc(O)cc3)C(=O)N3CCCC3C(=O)N(C)CC(=O)N(C)C(C(C)C)C(=O)OC2C)c(N)c1=O` (configuration not stated) (I: TYP[Sar][NMeV] / II: TYP[Sar][NMeV]; ester I:1-I:C, II:1-II:C; linker I:N-II:N via Actinocin(9to1); configuration not given here) had a TGI of over 100 µM.
The same measure, in the same setting: the figure for `CCO[C@@H]1OC(=O)[C@](C)(C(C)=O)[C@@H]1C` is over 100 µM.
On the same count and under the same terms, the figure for `O=c1cc(C(F)(F)F)c2cc3c(cc2o1)NCCC3` is over 100 µM.
The same measure, in the same setting: then `CCOC(=O)COC1=Nc2cc(OC)c(OC)c3nc(Cl)cc(c23)C1=O`, with 25.1 µM; and `Cc1sc2nc3n(sc4nc5sc(C)c(C)c5c(=O)n43)c(=O)c2c1C`, with over 100 µM.
In the case of `C/C(O)=C(\N=O)C(=O)NCCc1ccccc1`, the TGI is over 100 µM.
The same measure, in the same setting: the figure for `O=C(O)CNc1c2ccccc2nc2ccccc12` is over 100 µM.
As to `COCCn1cc(-c2csc(-c3c[nH]c4ccccc34)n2)c2cccnc21`, the GI50 was over 100 µM and the TGI is over 100 µM.
For `CC(=O)NCC1OC2COC(c3ccccc3)OC2C2N=C(c3ccccc3)OC12` (configuration not stated), the TGI is over 100 µM.
Turning to `CC(C)C(=O)/C=C/c1ccccc1`, the TGI is over 100 µM.
The same measure, in the same setting: then `Cc1cccc(-c2nc3c(C(=O)NCCN(C)C)cccc3[nH]2)c1`, with 6.4 µM; and `CCCCNC(=S)Nc1nc(C(=O)NNC(=S)NCc2ccccc2)cs1`, with over 100 µM; and `CC(=O)NC1C(OCc2ccccc2)OC(CO)C(O)C1OCC(=O)N[C@@H](C)C(=O)N[C@H](CCC(=O)NCCCCNc1c2ccccc2nc2cccc([N+](=O)[O-])c12)C(N)=O` (some centres not stated), with 53.3 µM.
On the same count and under the same terms, then `Cc1cc2nc3c(N)nn(CCN(C)C)c3nc2cc1C`, with over 100 µM; and `O=C(c1ccccc1)c1ccc2nc(-c3c(Cl)c(Cl)c(Cl)c(Cl)c3C(=O)Nc3ccco3)[nH]c2c1`, with over 100 µM.
On the same count and under the same terms, then `COC(=O)NC(Nc1ccc(C)cc1)(C(F)(F)F)C(F)(F)F`, with over 100 µM; and `COC(=O)C1CC(C(=O)OC)c2nc3cc(C)ccc3nc21` (configuration not stated), with over 100 µM.
`c1ccc(Cc2nc3ccc(Nc4ncnc5ccccc45)cc3[nH]2)cc1`: the GI50 is 21.7 µM and the TGI was over 25 µM.
For `COc1c(-c2ccc(F)cc2)oc2cc(O)cc(O)c2c1=O`, the TGI is over 100 µM.
For `CC(CN(CP(=O)([O-])[O-])CP(=O)([O-])[O-])N(CP(=O)([O-])[O-])CP(=O)([O-])[O-].N.N.[Pt+2]` (configuration not stated), the GI50 was over 100 µM and the TGI was over 100 µM.
`O=C(O)c1cc(Nc2c(O)c3c(c(O)c2Cl)C(=O)C=CC3=O)ccc1O` returned a TGI of over 10 µM.
Same read-out and setting: the figure for `CCN1C2=NC(=O)N(C)C(=O)C2(Cl)C(C(SC)S(=O)(=O)c2ccc(C)cc2)c2ccccc21` (configuration not stated) is over 100 µM.
On to `[N-]=[N+]=NC(c1cn(C2CC(O)C(CO)O2)c(=O)[nH]c1=O)C(Br)I` (configuration not stated), for which the TGI was over 100 µM.
In the case of `CSc1nc2c(c(=O)[nH]1)N=C1c3ccccc3C(=O)C1C(c1ccc(F)cc1)N2` (configuration not stated), the GI50 was 13.9 µM and the TGI was 74 µM.
Regarding `Cc1c(N=Nc2ccc([N+](=O)[O-])cc2)nc2scc(-c3ccccc3)n12`, the TGI was over 100 µM.
As for `CCCN(CCCCC(NC(C)=O)C(=O)NCc1ccccc1)C(=O)NCCCl` (configuration not stated), the TGI is over 100 µM.
On the same count and under the same terms, then `CN1C(=O)C(CCO)(C(C)(C)C)c2ccccc21` (configuration not stated), with over 100 µM.
As for `CC1=C(/C=C/C(C)=C\C=C\C(C)=C\C(=O)Nc2ccc3c(c2)OCO3)C(C)(C)CCC1`, the GI50 was 60.7 µM and the TGI is over 100 µM.
On to `C=C(C)[C@@H]1CC[C@]2(C(=O)OC3OC(COC4OC(CO)C(OC5OC(C)C(O)C(O)C5O)C(O)C4O)C(O)C(O)C3O)CC[C@]3(C)[C@H](CC[C@@H]4[C@@]5(C)CC[C@H](O)[C@@](C)(CO)[C@@H]5CC[C@]43C)[C@@H]12` (some centres not stated), for which the TGI is over 10 µM.
In the case of `COc1ccc(/C=N/N=C(\N)NO)cc1OC`, the TGI was over 100 µM.
For the compound `COc1ccc(C[C@H]2COC(=O)[C@@H]2Cc2ccccc2)cc1OC`, the TGI was over 100 µM.
Still for that read-out and setting: the figure for `Cn1c(O)c(/C=N/c2ncccn2)c(=O)[nH]c1=O` is over 100 µM.
In turn, `O=C1NC(=S)NC(=O)C1=Cc1cc2c(cc1[N+](=O)[O-])OCO2` returned a TGI of over 100 µM.
With `Cc1cc(=O)[nH]c(NN2C(Cl)C(=O)C2c2ccco2)n1` (configuration not stated), the TGI is over 100 µM.
On the same count and under the same terms, then `C=C(C)C(=O)O[C@H]1CC2(CO)O[C@@H]2CC/C(COC(C)=O)=C/C2OC(=O)C(=C)[C@@H]21` (some centres not stated), with over 100 µM; and `CCOC(=O)NC(OCc1ccccc1)(C(=O)OC)C(F)(F)F` (configuration not stated), with over 100 µM.
`C=C1C(=O)O[C@H]2[C@H]1CC/C(COC(=O)NCc1cc3ccccc3[nH]1)=C\CC[C@@]1(C)O[C@@H]21`: the GI50 is 4.53 µM and the TGI amounted to 16.1 µM.
`Cc1ccc(S(=O)(=O)CC2CCCn3c2c(C#N)c2ccccc23)cc1` (configuration not stated): the TGI is over 100 µM.
As to `NC(=O)c1cnc(N[C@@H]2CCCC[C@@H]2N)nc1Nc1cccc(-n2nccn2)c1`, the GI50 was 5.48 µM and the TGI is 18.5 µM.
Take `CC(=O)OCC1(CNc2nc(N)ncc2C#N)CC(CCc2ccccc2)C1` (configuration not stated): the TGI is over 100 µM.
Same read-out and setting: then `Cc1ccc(C2(N3CCOCC3)OC(C)(C)c3cccc4cccc2c34)cc1` (configuration not stated), with 34 µM; and `CCC(=O)Nc1ccc(N2C(=O)/C(=C/c3ccc(O)c(OC)c3)N=C2c2ccccc2)cc1`, with 38.2 µM.
For the compound `O=C1C(Cl)C(c2cccc(O)c2)N1n1cnc2ccccc2c1=O` (configuration not stated), the TGI was over 100 µM.
`O=C1/C(=C/c2cccs2)N=C(c2ccccc2)N1c1nc2ccccc2s1` registered a TGI of over 100 µM.
The same measure, in the same setting: then `CC(C)N(C(=O)C12C3C4C5(C#N)C3C1(I)C5C42I)C(C)C` (configuration not stated), with over 100 µM.
